Test results as given in PMC9911399, “Two distinct binding modes provide the RNA-binding protein RbFox with extraordinary sequence specificity”.
Changes are numbered by the printed parent chain; changes in the protein carry UniProt numbers. The list shows a part of the results.

T1: RBFOX1 RRM RbFoxmut (Fox-RRM*) (Homo sapiens, UniProt Q9NWB1 109-208, R118D;E147R;N151S;E152T)
T1 sequence: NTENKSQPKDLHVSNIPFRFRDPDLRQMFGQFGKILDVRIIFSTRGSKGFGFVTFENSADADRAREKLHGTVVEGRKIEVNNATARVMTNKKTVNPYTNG

B1: AUGCGUA (DNA:RNA)
RNA: GGGAGACCGGAAUUCAGAUUGUCCAUGCGUAUUAAAUCCCGUCGUAGCCACCA
DNA 1: CAATCTGAATTCCGGTCTCCC
DNA 2: TGGTGGCTACGACGGGATT
B2: AAGUGCU (DNA:RNA)
RNA: B1 RNA with U26A, C28U, U30C, A31U
DNA 1: CAATCTGAATTCCGGTCTCCC
DNA 2: TGGTGGCTACGACGGGATT
B3: GGUUUCG (DNA:RNA)
RNA: GGGAGACCGGAAUUCAGAUUGUCCGGUUUCGUUAAAUCCCGUCGUAGCCACCA
DNA 1: CAATCTGAATTCCGGTCTCCC
DNA 2: TGGTGGCTACGACGGGATT
B4: GUUAUUC (DNA:RNA)
RNA: B3 RNA with G26U, U28A, C30U, G31C
DNA 1: CAATCTGAATTCCGGTCTCCC
DNA 2: TGGTGGCTACGACGGGATT
B5: GUUGUCG (DNA:RNA)
RNA: B3 RNA with G26U, U28G
DNA 1: CAATCTGAATTCCGGTCTCCC
DNA 2: TGGTGGCTACGACGGGATT
B6: UUAGUCA (DNA:RNA)
RNA: B1 RNA with A25U, G27A, C28G, G29U, U30C
DNA 1: CAATCTGAATTCCGGTCTCCC
DNA 2: TGGTGGCTACGACGGGATT
B7: CACCCUC (DNA:RNA)
RNA: B1 RNA with A25C, U26A, G27C, G29C, A31C
DNA 1: CAATCTGAATTCCGGTCTCCC
DNA 2: TGGTGGCTACGACGGGATT
B8: CACGUCU (DNA:RNA)
RNA: B3 RNA with G25C, G26A, U27C, U28G, G31U
DNA 1: CAATCTGAATTCCGGTCTCCC
DNA 2: TGGTGGCTACGACGGGATT
B9: UGCGAUC (DNA:RNA)
RNA: B1 RNA with A25U, U26G, G27C, C28G, G29A, A31C
DNA 1: CAATCTGAATTCCGGTCTCCC
DNA 2: TGGTGGCTACGACGGGATT
B10: GCGGCUC (DNA:RNA)
RNA: B1 RNA with A25G, U26C, C28G, G29C, A31C
DNA 1: CAATCTGAATTCCGGTCTCCC
DNA 2: TGGTGGCTACGACGGGATT
B11: AGUGGAU (DNA:RNA)
RNA: B1 RNA with U26G, G27U, C28G, U30A, A31U
DNA 1: CAATCTGAATTCCGGTCTCCC
DNA 2: TGGTGGCTACGACGGGATT
B12: ACAUGUU (DNA:RNA)
RNA: B1 RNA with U26C, G27A, C28U, A31U
DNA 1: CAATCTGAATTCCGGTCTCCC
DNA 2: TGGTGGCTACGACGGGATT
B13: AACCGGA (DNA:RNA)
RNA: B1 RNA with U26A, G27C, U30G
DNA 1: CAATCTGAATTCCGGTCTCCC
DNA 2: TGGTGGCTACGACGGGATT
B14: GGCUGAU (DNA:RNA)
RNA: B3 RNA with U27C, U29G, C30A, G31U
DNA 1: CAATCTGAATTCCGGTCTCCC
DNA 2: TGGTGGCTACGACGGGATT
B15: UAAACAC (DNA:RNA)
RNA: GGGAGACCGGAAUUCAGAUUGUCCUAAACACUUAAAUCCCGUCGUAGCCACCA
DNA 1: CAATCTGAATTCCGGTCTCCC
DNA 2: TGGTGGCTACGACGGGATT
B16: AUCUGUC (DNA:RNA)
RNA: B1 RNA with G27C, C28U, A31C
DNA 1: CAATCTGAATTCCGGTCTCCC
DNA 2: TGGTGGCTACGACGGGATT
B17: CCAAUCG (DNA:RNA)
RNA: B3 RNA with G25C, G26C, U27A, U28A
DNA 1: CAATCTGAATTCCGGTCTCCC
DNA 2: TGGTGGCTACGACGGGATT
B18: UUACGGU (DNA:RNA)
RNA: B1 RNA with A25U, G27A, U30G, A31U
DNA 1: CAATCTGAATTCCGGTCTCCC
DNA 2: TGGTGGCTACGACGGGATT
B19: UGAUCGG (DNA:RNA)
RNA: B3 RNA with G25U, U27A, U29C, C30G
DNA 1: CAATCTGAATTCCGGTCTCCC
DNA 2: TGGTGGCTACGACGGGATT
B20: GCGUAGA (DNA:RNA)
RNA: B1 RNA with A25G, U26C, C28U, G29A, U30G
DNA 1: CAATCTGAATTCCGGTCTCCC
DNA 2: TGGTGGCTACGACGGGATT

The binders below were run against T1, RBFOX1 RRM RbFoxmut (Fox-RRM*) (assay: EMSA; HiTS-Eq, 1 nM pool, 10 min; buffer printed only for the single-RNA assays: 10 mM Tris pH 7.5, 150 mM NaCl, 3.4 mM EDTA, 0.001% NP-40, 30 C). Details: tags: His6 N-terminal (pET28a); label: 5' 32P.
How it was run: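 Relative association constants, normalised to the cognate motif, were derived by comparing read counts of each RNA species with those of the control reaction. The RNA sequenced was the free fraction, separated by 8% native PAGE after a 10 min equilibration in 50 µL of 1 nM 5′-radiolabelled RNA (7 randomized nucleotides) with increasing concentrations of purified wild-type or mutant RbFox RRM.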

First: B1
Second: B2
The binding signal of the first is higher: 0.231 KA relative to UGCAUGU for the first, 0.106 KA relative to UGCAUGU for the second.

Compared with B3, B4 is lower in binding signal: 0.219 KA relative to UGCAUGU for the first, 0.0819 KA relative to UGCAUGU for the second.

First: B5
Second: B6
The binding signal of the first is higher: 0.145 KA relative to UGCAUGU for the first, 0.103 KA relative to UGCAUGU for the second.

Compared with B7, B8 is higher in binding signal: 0.0678 KA relative to UGCAUGU for the first, 0.0849 KA relative to UGCAUGU for the second.

Compared with B9, B10 is lower in binding signal: 0.286 KA relative to UGCAUGU for the first, 0.0801 KA relative to UGCAUGU for the second.

First: B11
Second: B12
The binding signal of the first is lower: 0.101 KA relative to UGCAUGU for the first, 0.127 KA relative to UGCAUGU for the second.

Compared with B13, B14 is higher in binding signal: 0.0684 KA relative to UGCAUGU for the first, 0.12 KA relative to UGCAUGU for the second.

Compared with B15, B16 is higher in binding signal: 0.0845 KA relative to UGCAUGU for the first, 0.349 KA relative to UGCAUGU for the second.

Compared with B17, B18 is higher in binding signal: 0.0689 KA relative to UGCAUGU for the first, 0.0805 KA relative to UGCAUGU for the second.

Compared with B19, B20 is higher in binding signal: 0.0919 KA relative to UGCAUGU for the first, 0.117 KA relative to UGCAUGU for the second.
